In all, about 110,000 compounds were measured (“z-score”: median about -0.1, highest 2% from about 2 on). The list shows a part of the results. Calls of active or inactive are those of the source.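 The calls were made as follows: active = z-score in the third read window above 3 or below -3; inactive = the rest.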

In this assay the target is Metabotropic glutamate receptor 8 (Rattus norvegicus) (UniProt P70579). Kind of assay: rat mGluR8 modulators via GIRK flux, primary screen, cell-based, thallium flux, HTS (AID 488969). The settings on record: HEK293 rat mGluR8, GIRK (G protein-gated inwardly rectifying potassium channel) thallium flux, FluoZin2; at 10 µM; stronger effect = higher value; submaximal glutamate (EC20) added with thallium.
UniProt P70579, sequence (P70579 whole entry, looked up): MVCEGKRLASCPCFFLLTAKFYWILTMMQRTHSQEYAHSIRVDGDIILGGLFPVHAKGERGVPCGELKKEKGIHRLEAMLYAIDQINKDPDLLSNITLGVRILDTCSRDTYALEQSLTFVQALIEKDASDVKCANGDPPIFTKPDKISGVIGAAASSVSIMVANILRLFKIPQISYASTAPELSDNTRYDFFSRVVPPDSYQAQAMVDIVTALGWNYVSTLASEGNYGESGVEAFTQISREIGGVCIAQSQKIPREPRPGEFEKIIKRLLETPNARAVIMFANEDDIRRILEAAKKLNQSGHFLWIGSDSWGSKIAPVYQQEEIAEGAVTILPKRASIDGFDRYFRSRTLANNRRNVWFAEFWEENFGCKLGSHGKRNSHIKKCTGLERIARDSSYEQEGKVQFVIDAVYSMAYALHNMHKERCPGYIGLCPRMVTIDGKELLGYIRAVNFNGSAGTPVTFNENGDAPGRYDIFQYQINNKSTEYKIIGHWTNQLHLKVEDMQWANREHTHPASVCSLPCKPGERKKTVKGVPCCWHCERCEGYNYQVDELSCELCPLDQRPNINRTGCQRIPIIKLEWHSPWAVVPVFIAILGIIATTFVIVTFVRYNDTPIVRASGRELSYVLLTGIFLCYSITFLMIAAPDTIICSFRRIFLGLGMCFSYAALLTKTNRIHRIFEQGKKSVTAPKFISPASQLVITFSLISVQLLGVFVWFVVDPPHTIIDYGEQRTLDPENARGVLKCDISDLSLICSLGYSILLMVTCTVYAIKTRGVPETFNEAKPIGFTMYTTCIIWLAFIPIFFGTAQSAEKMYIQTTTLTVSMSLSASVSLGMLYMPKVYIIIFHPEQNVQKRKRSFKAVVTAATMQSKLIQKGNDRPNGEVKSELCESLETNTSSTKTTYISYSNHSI
In turn, `CC(=O)c1cccc(N=C2C(=O)Nc3ccccc32)c1` came in with a z-score of 0.86. Compound `CCSC1=C(C#N)C(c2ccc(C)s2)CC(=O)N1` (stereo not given) registered a z-score of -0.627. As for `COCCn1c(SCc2cnc(-c3ccccc3)s2)nnc1-c1ccncc1`, the figure is -0.0799; as for `Clc1ccc(C(c2ccccc2)N2CCNCC2)cc1` (stereo not given), 2.16; as for `Cc1cccc(/C(N)=N/OC(=O)c2ccco2)c1`, -0.249. With `CS(=O)(=O)N1CCN(C(=O)c2cc(-c3ccncc3)nc3ccc(Cl)cc23)CC1` the figure was -0.0609; with `Nc1nc(Br)c2ccccc2c1-c1ccc(F)cc1`, -0.11. `CCCCc1ccc(S(=O)(=O)NNC(=S)NCc2ccco2)cc1` showed a z-score of -0.395. With `CCn1nc(C)c(C2C(C#N)=C(N)Oc3n[nH]c(C)c32)c1C` (stereo not given) the figure was -0.237; with `COc1ccccc1C1NC=C([N+](=O)[O-])C=C1[N+](=O)[O-]` (stereo not given), -0.297.

`COCC(=O)Nc1nc2ccc(C)cc2s1` showed a z-score of 0.0888. Regarding `COc1ccccc1CNC(=O)COc1ccccc1OC`, the z-score is -0.401. `CCCCCc1c(C)nc(N2CCc3ccccc32)[nH]c1=O` gave a z-score of 0.499. For `O=C(CSc1nnnn1-c1ccccc1)Nc1ncc(Cc2cc(Cl)ccc2Cl)s1`, the z-score came out at 0.34. The compound `Cc1csc2ncc(C(=O)NC(C)c3ccccc3)c(=O)n12` (stereo not given) gave a z-score of -0.624. With `COc1ccc(-n2c(SCC(=O)Nc3nccs3)nnc2-c2ccccc2)cc1` the figure was -0.11; with `CCOC(=O)c1c(C)[nH]c(C(=O)OC/C(O)=C(\C#N)c2nc3ccccc3[nH]2)c1C`, -1.26; with `CN(C)CCNC(=O)/C(=C/c1ccc(-c2cccc(Cl)c2)o1)NC(=O)c1ccccc1`, 0.11. In turn, `CCN(CC)CCCNC(=O)c1cc2c(-c3ccc(Cl)cc3)nn(C)c2s1` had a z-score of 0.282. In the case of `O=c1c2c3c(sc2nc2n1CCCC2)CCC3`, the z-score came to 0.258. As for `O=C(COc1ccccc1Br)NCCc1nc2ccccc2[nH]1`, the figure is -0.186; as for `O=C(CCCn1c(=O)c2sccc2n(Cc2ccc(F)cc2)c1=O)NCc1ccco1`, -0.0736; as for `COC(=O)c1ccc(C2C(Oc3ccccc3)C(=O)N2CCc2ccc(F)cc2)cc1` (stereo not given), -0.103. As for `Cc1ccc(S(=O)(=O)c2cc3c(=O)n4ccccc4nc3n(Cc3ccco3)c2=N)cc1`, the figure is -0.166; as for `COc1ccc(CCNC(=O)C(C(=O)c2ccccc2)n2ccccc2=O)cc1OC` (stereo not given), 0.0271. `O=c1cc(O)c2sc(Nc3cccc(C(F)(F)F)c3)nc2[nH]1`: the z-score was -0.0868. On to `CCC(=O)NC(=S)NNC(=O)c1ccc(OC)cc1`, for which the z-score is -0.0696. For the compound `CCOC(=O)C1=C(CNC2CCCCC2)NC(=O)NC1c1cc(C)ccc1C` (stereo not given), the z-score amounted to 1.64. As to `O=C(Nc1cc(Sc2nc3ccccc3s2)cc([N+](=O)[O-])c1)c1ccccc1F`, the z-score was -0.2. Take `O=C(COc1ccc(Cl)cc1Cl)N/N=C1\CCCc2ccccc21`: the z-score worked out at 0.149. `COc1ccccc1NC(=O)CSc1nc2ncccc2[nH]1` yielded a z-score of -1.06. As for `CCN(CC)S(=O)(=O)c1cccc(NC(=O)COc2ccc(C#N)cc2OC)c1`, the figure is -0.191. `O=C(CN(C(=O)c1ccc(Cl)cc1)N1C(=O)C2CCCCC2C1=O)c1ccc(Cl)cc1` (stereo not given): the z-score is 0.0138.

As for `CCOC(=O)c1ccc(NC(=O)C2CCN(S(=O)(=O)c3ccccc3)CC2)cc1`, the z-score was 0.719. `Cc1cc(NC(=O)C2CC(c3cccc(Br)c3)=NO2)no1` (stereo not given) came in with a z-score of -0.0724. On to `Cc1ccc2c(c1)C1NC(=S)NC(C)(O2)C1C(=O)Nc1ccc(Cl)cc1` (stereo not given), for which the z-score was -0.244. Take `COc1cc(NC(=O)CSc2nnnn2Cc2ccc3c(c2)OCO3)cc(OC)c1`: the z-score was -0.405. With `CSc1nccc(Oc2cncc(Cl)c2)n1` the figure was -0.0377; with `CC(C)(C)n1nnnc1C(c1cccnc1)N1CCN(c2ccccc2)CC1` (stereo not given), 1.03.

As for `CCn1c(=O)cc(OCC(=O)Nc2ccccc2N2CCN(C)CC2)c2ccccc21`, the z-score was -1.02. `CC(C)OC(=O)c1cccc(C(=O)O)n1`: the z-score was -1.02. On to `COC(=O)C1(C#N)C(c2ccccc2)C1(C(=O)OC)C(=O)OC` (stereo not given), for which the z-score was -0.244. Consider `CC12CCC(C(=O)N(CSC(=S)N/N=C\c3ccccc3Cl)C1=O)C2(C)C` (stereo not given), for which the z-score is active: 16.2. `CCOP(=O)(OCC)c1nc(-c2ccc(C)cc2)oc1NCc1ccccc1` registered a z-score of -0.559. `Cc1ccc(OCC(=O)Nc2ccc3c4c(cccc24)CC3)c(C)c1` returned a z-score of -1.37.

The compound `CC(CN1CCN(c2ccccc2)CC1)c1ccccc1` (stereo not given) yielded a z-score of -0.5. With `O=C(NCc1ccncc1)c1c(F)c(F)c(F)c(F)c1F` the figure was 0.359. As for `N#C/C(=C\c1cc2ccccc2nc1N1CCOCC1)C(=O)Nc1ccc(N2CCOCC2)cc1`, the figure is -0.0498; as for `COCCSc1ccccc1C(=O)Nc1nnc(C)s1`, 0.0856; as for `Clc1ccc2oc(-c3cccnc3)nc2c1`, -0.154.

With `Cc1cc(N2C(=O)C(O)=C(C(=O)c3ccc(C)o3)C2c2cccs2)no1` (stereo not given), the z-score was active: -4.56. Turning to `Cn1c(-c2sc3cc(C(F)(F)F)cnc3c2-c2ccccc2)n[nH]c1=S`, the z-score was 1.26.

For the compound `COc1ccc(-n2c3c(cc(C(=O)Nc4ccc5c(c4)C(=O)NC5=O)c2=O)C(=O)CCC3)cc1`, the z-score was -0.0421. `O=[N+]([O-])c1cc(C(F)(F)F)ccc1NCCNC(=S)Nc1ccc(Cl)cc1` registered a z-score of -0.0979.

In the case of `COc1ccc(C2=NN(C(=O)c3cccs3)C(c3ccc(OC)cc3)C2)cc1` (stereo not given), the z-score is 0.167.

`c1ccc(OCCCc2nc(-c3ccncc3)no2)cc1` yielded a z-score of 0.0435. With `O=C(N/N=C/c1ccc(-c2ccccc2[N+](=O)[O-])o1)c1cncc(Br)c1`, the z-score was -1.68. Turning to `Cc1ccc(NC(=O)c2cc(Cl)nc3ccccc23)cc1`, the z-score was -0.205. With `O=C(CCS(=O)(=O)c1ccccc1)NC12CC3CC(CC(C3)C1)C2` the figure was -0.514; with `CCNC(=S)NNC(=O)c1cc(C)on1`, -0.232. Turning to `COc1c(/C=N/Nc2ccc([N+](=O)[O-])cc2[N+](=O)[O-])c(C)nn1-c1ccccc1`, the z-score came out at 0.178.

Consider `CCOC(=O)N1CCN(C(=O)c2ccc(OCC)c(OCC)c2)CC1`, for which the z-score worked out at 0.263.

For the compound `CCC(C)NC(=O)C1CCN(S(=O)(=O)CC)CC1` (stereo not given), the z-score is -0.396. On to `c1ccc2c(c1)ccc1nnc(SCc3ccc4c(c3)OCO4)n12`, for which the z-score was -0.511. On to `CCCC(=O)NCc1ccc2c(c1)cc(C)n2C`, for which the z-score was -0.371. As for `N#CC1=C(N)NC(SCC(=O)c2ccc(Cl)cc2)=C(C#N)C12CCCC2`, the figure is -0.593; as for `Cc1nnc(C)n1/N=C/c1ccc(C(C)C)cc1`, 0.0448.

With `COC(=O)c1ccc(Sc2ccccc2NS(=O)(=O)c2ccc(OC)cc2)nc1`, the z-score stood at 0.0537. On to `C/C(=N\N1CCN(C2c3ccccc3-c3ccccc32)CC1)c1cccnc1`, for which the z-score is -0.195.

As for `CC(=O)c1cc2c(cc1NC(=O)CSc1nc3ccc(C)cc3[nH]1)OCO2`, the z-score is 0.771.

The record behind these values is PubChem BioAssay AID488969 (Vanderbilt High Throughput Screening Facility, 2010).
